# Measurements as given in the supplement of paper PMC10037445.
# Several values for one entry are separate records, joined by “and”; a condition that tells them apart may be missing. Equal values may be shown once. In all, about 2,900 compounds were measured (“IRF Lucia reporter activity, fold change vs agonist alone”: median about 0.9, highest 2% from about 2.8 on). The list shows a part of the results.
# What was measured:
# [1] = system: RAW-Dual; test: IRF Lucia reporter activity, fold change vs agonist alone; cytotoxicity flag (confluency mask): not cytotoxic; higher = enhanced IRF activity
# In short: (§1)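 Reporter activity is given as fold change relative to agonist-alone wells. To measure it, 50 nL of library stock was pin-tooled onto RAW-Dual macrophages (50,000 cells/well, DMEM, 384-well plates), a PRR agonist followed 1 h later, and cells stayed at 37 °C, 5% CO2. Twenty hours on, supernatant was assayed for IRF (QuantiLuc luminescence) and NF-κB (QuantiBlue, 620 nm absorbance), and wells under 70% of agonist-control IncuCyte confluency in both mask sets were marked cytotoxic.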
# [2] = system: RAW-Dual; test: IRF Lucia reporter activity, fold change vs agonist alone; higher = enhanced IRF activity; conditions: agonist: MPLA (TLR4) […]
# In short: as §1
# [3] = system: RAW-Dual; test: IRF Lucia reporter activity, fold change vs agonist alone; cytotoxicity flag (confluency mask): cytotoxic (confluency <70% of control); higher = enhanced IRF activity
# In short: as §1
# [4] = agonist: 3'3'-cGAMP (STING) 10 ug/mL
# [5] = library stock concentration (final ~1000-fold dilution): 10 mM, cytotoxicity flag (confluency mask): not cytotoxic
compound,measurement,setting,value
CNC(=O)c1ccccc1Oc1nc(Nc2cc(OC)c(OC)c(OC)c2)ncc1Br (library stock concentration (final ~1000-fold dilution): 10 mM),IRF Lucia reporter activity,[1]; [4],0.23
same,IRF Lucia reporter activity,[1]; agonist: LPS (TLR4) 0.1 ug/mL,0.394
CS(=O)(=O)c1cccc(CC(NC(=O)c2c(Cl)cc3c(c2Cl)CCN(C(=O)c2ccc4ccoc4c2)C3)C(=O)O)c1 (stereo not given),IRF Lucia reporter activity,[2]; [5],1.15
CS(=O)(=O)c1cccc(CC(NC(=O)c2c(Cl)cc3c(c2Cl)CCN(C(=O)c2ccc4ccoc4c2)C3)C(=O)O)c1 (stereo not given) (library stock concentration (final ~1000-fold dilution): 10 mM),IRF Lucia reporter activity,[1]; [4],1.14
same,IRF Lucia reporter activity,[1]; agonist: LPS (TLR4) 0.1 ug/mL,1.2
O=c1ncn2nc(Sc3ccc(F)cc3F)ccc2c1-c1c(Cl)cccc1Cl (library stock concentration (final ~1000-fold dilution): 10 mM),IRF Lucia reporter activity,[1]; [4],0.886
same,IRF Lucia reporter activity,[1]; agonist: LPS (TLR4) 0.1 ug/mL,0.829
O=c1ncn2nc(Sc3ccc(F)cc3F)ccc2c1-c1c(Cl)cccc1Cl,IRF Lucia reporter activity,[2]; [5],0.649
O=c1[nH]cc(F)c(=O)[nH]1 (library stock concentration (final ~1000-fold dilution): 10 mM),IRF Lucia reporter activity,[3]; [4],1.24
same,IRF Lucia reporter activity,[3]; agonist: LPS (TLR4) 0.1 ug/mL,1.48
O=c1[nH]cc(F)c(=O)[nH]1,IRF Lucia reporter activity,"[2]; library stock concentration (final ~1000-fold dilution): 10 mM, cytotoxicity flag (confluency mask): cytotoxic (confluency <70% of control)",1.17
Cl.Nc1c(Br)cc(Br)cc1CNC1CCC(O)CC1 (stereo not given) (library stock concentration (final ~1000-fold dilution): 2 mM),IRF Lucia reporter activity,[1]; [4],0.844
same,IRF Lucia reporter activity,[1]; agonist: LPS (TLR4) 0.1 ug/mL,1.01
Cl.Nc1c(Br)cc(Br)cc1CNC1CCC(O)CC1 (stereo not given),IRF Lucia reporter activity,"[2]; library stock concentration (final ~1000-fold dilution): 2 mM, cytotoxicity flag (confluency mask): not cytotoxic",1.14
CC(=O)Oc1cc(C(F)(F)F)ccc1C(=O)O,IRF Lucia reporter activity,[2]; [5],1.04
CC(=O)Oc1cc(C(F)(F)F)ccc1C(=O)O (library stock concentration (final ~1000-fold dilution): 10 mM),IRF Lucia reporter activity,[1]; [4],1.03
same,IRF Lucia reporter activity,[1]; agonist: LPS (TLR4) 0.1 ug/mL,0.337
O=c1c(O[C@@H]2OC[C@@H](O)[C@H](O)[C@H]2O)c(-c2ccc(O)c(O)c2)oc2cc(O)cc(O)c12 (library stock concentration (final ~1000-fold dilution): 10 mM),IRF Lucia reporter activity,[3]; [4],0.0133
same,IRF Lucia reporter activity,[3]; agonist: LPS (TLR4) 0.1 ug/mL,0.0292
CN1CCOC(c2ccccc2)c2ccccc2C1.Cl (stereo not given) (library stock concentration (final ~1000-fold dilution): 10 mM water),IRF Lucia reporter activity,[1]; [4],1.13
same,IRF Lucia reporter activity,[1]; agonist: LPS (TLR4) 0.1 ug/mL,0.906
CN1CCOC(c2ccccc2)c2ccccc2C1.Cl (stereo not given),IRF Lucia reporter activity,"[2]; library stock concentration (final ~1000-fold dilution): 10 mM water, cytotoxicity flag (confluency mask): not cytotoxic",1.23
N#Cc1cc(-c2ccnc(Nc3ccc(N4CCOCC4)cc3)n2)ccc1OC1CCOCC1 (library stock concentration (final ~1000-fold dilution): 10 mM),IRF Lucia reporter activity,[1]; [4],0.0161
same,IRF Lucia reporter activity,[1]; agonist: LPS (TLR4) 0.1 ug/mL,0.0172
C[C@@H]1O[C@@H](Oc2c(-c3ccc(O)c(O)c3)oc3cc(O)cc(O)c3c2=O)[C@H](O)[C@H](O)[C@H]1O (library stock concentration (final ~1000-fold dilution): 10 mM),IRF Lucia reporter activity,[1]; [4],0.524
same,IRF Lucia reporter activity,[1]; agonist: LPS (TLR4) 0.1 ug/mL,0.524
CN(C)CCCNC(=O)c1ccc(-c2cc(O)c3ncccc3c2)cc1,IRF Lucia reporter activity,[2]; [5],1.05
CN(C)CCCNC(=O)c1ccc(-c2cc(O)c3ncccc3c2)cc1 (library stock concentration (final ~1000-fold dilution): 10 mM),IRF Lucia reporter activity,[1]; [4],0.336
same,IRF Lucia reporter activity,[1]; agonist: LPS (TLR4) 0.1 ug/mL,0.965
Cc1nn(C)c2nc(NNC(=O)Nc3cc(Cl)nc(Cl)c3)cc(C(C)C)c12,IRF Lucia reporter activity,[2]; [5],1.13
Cc1nn(C)c2nc(NNC(=O)Nc3cc(Cl)nc(Cl)c3)cc(C(C)C)c12 (library stock concentration (final ~1000-fold dilution): 10 mM),IRF Lucia reporter activity,[1]; [4],0.557
same,IRF Lucia reporter activity,[1]; agonist: LPS (TLR4) 0.1 ug/mL,1.01
O=C(O)Cc1ccccc1Nc1c(Cl)cccc1Cl (library stock concentration (final ~1000-fold dilution): 10 mM),IRF Lucia reporter activity,[1]; [4],0.986 and 1.02
same,IRF Lucia reporter activity,[1]; agonist: LPS (TLR4) 0.1 ug/mL,0.611 and 0.994
Cc1c(NC(=O)c2ccc(C(C)(C)C)cc2)cccc1-c1cn(C)c(=O)c(Nc2ccc(C(=O)N3CCOCC3)cc2)n1 (library stock concentration (final ~1000-fold dilution): 10 mM),IRF Lucia reporter activity,[1]; [4],0.982
same,IRF Lucia reporter activity,[1]; agonist: LPS (TLR4) 0.1 ug/mL,0.964
Cc1c(NC(=O)c2ccc(C(C)(C)C)cc2)cccc1-c1cn(C)c(=O)c(Nc2ccc(C(=O)N3CCOCC3)cc2)n1,IRF Lucia reporter activity,[2]; [5],0.98
COc1cc(F)c(F)c(Nc2ccc(I)cc2F)c1NS(=O)(=O)C1(CC(O)CO)CC1 (stereo not given) (library stock concentration (final ~1000-fold dilution): 10 mM),IRF Lucia reporter activity,[1]; [4],0.508
same,IRF Lucia reporter activity,[1]; agonist: LPS (TLR4) 0.1 ug/mL,0.349
COc1cc(F)c(F)c(Nc2ccc(I)cc2F)c1NS(=O)(=O)C1(CC(O)CO)CC1 (stereo not given),IRF Lucia reporter activity,[2]; [5],0.699
Br.Br.NCCCCCNCC12CC3CC(CC(C3)C1)C2 (library stock concentration (final ~1000-fold dilution): 10 mM),IRF Lucia reporter activity,[1]; [4],0.793
same,IRF Lucia reporter activity,[1]; agonist: LPS (TLR4) 0.1 ug/mL,0.958
Br.Br.NCCCCCNCC12CC3CC(CC(C3)C1)C2,IRF Lucia reporter activity,[2]; [5],1.03
CN1CCN(CCCNc2ncc(Cl)c(-c3cc4c(C(=O)NC5CC5)cccc4s3)n2)CC1 (library stock concentration (final ~1000-fold dilution): 10 mM),IRF Lucia reporter activity,[3]; [4],0.204
same,IRF Lucia reporter activity,[3]; agonist: LPS (TLR4) 0.1 ug/mL,0.0765
